{"source": "paper PMC4336329", "about": "(PLoS ONE, 2015)", "note": "About 14,000 (4.5%) of roughly 310,000 compounds showed an effect of 50% or more. Effects have a minus sign here. The list shows a part of the results.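 Further: peak tail current of the secondary pulse compared with the same well before compound.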", "data": [{"target": "human ether-à-go-go-related gene (hERG) potassium channel (human, UniProt Q12809)", "sequence (Q12809 whole entry, looked up)": "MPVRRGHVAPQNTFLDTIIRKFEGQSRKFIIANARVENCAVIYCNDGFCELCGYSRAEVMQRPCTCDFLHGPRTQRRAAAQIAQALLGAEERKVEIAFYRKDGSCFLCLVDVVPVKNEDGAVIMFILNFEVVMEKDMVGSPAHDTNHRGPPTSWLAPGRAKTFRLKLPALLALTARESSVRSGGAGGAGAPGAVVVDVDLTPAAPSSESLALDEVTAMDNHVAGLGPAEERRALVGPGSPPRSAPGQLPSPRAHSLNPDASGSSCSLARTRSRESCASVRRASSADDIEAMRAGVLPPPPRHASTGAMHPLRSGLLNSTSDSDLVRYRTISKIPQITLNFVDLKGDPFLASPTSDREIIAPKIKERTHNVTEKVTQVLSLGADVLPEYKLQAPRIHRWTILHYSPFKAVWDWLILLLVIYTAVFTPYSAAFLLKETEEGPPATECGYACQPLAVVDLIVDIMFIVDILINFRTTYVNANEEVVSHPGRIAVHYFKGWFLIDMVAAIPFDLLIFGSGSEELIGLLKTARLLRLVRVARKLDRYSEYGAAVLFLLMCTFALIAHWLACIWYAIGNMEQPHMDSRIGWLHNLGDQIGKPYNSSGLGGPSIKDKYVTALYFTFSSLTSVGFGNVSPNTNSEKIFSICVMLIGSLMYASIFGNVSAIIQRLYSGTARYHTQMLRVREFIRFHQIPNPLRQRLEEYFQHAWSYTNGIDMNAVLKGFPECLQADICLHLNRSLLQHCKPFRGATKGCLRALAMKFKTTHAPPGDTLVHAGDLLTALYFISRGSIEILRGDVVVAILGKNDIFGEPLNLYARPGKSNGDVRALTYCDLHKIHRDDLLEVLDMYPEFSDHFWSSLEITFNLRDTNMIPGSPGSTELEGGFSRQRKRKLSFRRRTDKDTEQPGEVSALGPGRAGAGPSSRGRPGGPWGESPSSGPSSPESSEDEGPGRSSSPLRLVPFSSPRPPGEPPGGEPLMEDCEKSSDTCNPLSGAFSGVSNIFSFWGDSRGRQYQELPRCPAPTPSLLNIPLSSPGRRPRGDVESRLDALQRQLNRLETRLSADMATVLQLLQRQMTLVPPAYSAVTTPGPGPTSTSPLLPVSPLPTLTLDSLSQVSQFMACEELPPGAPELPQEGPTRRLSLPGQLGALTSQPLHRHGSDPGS", "assay": "primary screen, population patch clamp on CHO cells stably expressing hERG", "units": {"hERG current change (%, negative = inhibition) at 10uM": "%"}, "values": [{"molecule": "O=S(=O)(Nc1ncccn1)c1ccc(NC(=S)Nc2ccc(Cl)cc2)cc1", "hERG current change (%, negative = inhibition) at 10uM": 14.9}, {"molecule": "CC(C)c1ccc(/C=N/NC(=O)c2c(Cl)cnn2C)cc1", "hERG current change (%, negative = inhibition) at 10uM": -14.5}, {"molecule": "COC(=O)C1=C(C)N(c2ccc(Cl)cc2)/C(=C/c2ccc(O)cc2)C1=O", "hERG current change (%, negative = inhibition) at 10uM": 6.31}, {"molecule": "COc1ccc(N2CCN(C(=O)c3ccc4[nH]c(C)c(C)c4c3)CC2)cc1", "hERG current change (%, negative = inhibition) at 10uM": -14.3}, {"molecule": "Cn1c(SCC(=O)Nc2ccccc2)nnc1C(F)(F)F", "hERG current change (%, negative = inhibition) at 10uM": 32.6}, {"molecule": "Cc1cc(C(=O)N/N=C/c2cn(C)nc2C)c2ccccc2n1", "hERG current change (%, negative = inhibition) at 10uM": 10.9}, {"molecule": "Cc1ccc2[nH]c(=O)c3cc(C(=O)NCC4CCCO4)sc3c2c1", "note": "(stereo not shown)", "hERG current change (%, negative = inhibition) at 10uM": -3.5}, {"molecule": "Cn1nc(CC(=O)Nc2cccnc2N2CCOCC2)c2ccccc2c1=O", "hERG current change (%, negative = inhibition) at 10uM": -7}, {"molecule": "CCC1CCCCN1C(=O)N[C@@H](Cc1ccccc1)C(=O)O", "note": "(stereo partly shown)", "hERG current change (%, negative = inhibition) at 10uM": 15.2}, {"molecule": "Cc1ccc(C(=O)Nc2oc(-c3ccccc3)cc2C#N)cc1", "hERG current change (%, negative = inhibition) at 10uM": 18.9}, {"molecule": "CCCCC(CC)CNC(=O)CC1Nc2c3ccccc3nc(=S)n2C1=O", "note": "(stereo not shown)", "hERG current change (%, negative = inhibition) at 10uM": 13.9}, {"molecule": "COc1cccc2c(N/N=C/c3ccccc3)cc(C)nc12", "hERG current change (%, negative = inhibition) at 10uM": -9.04}, {"molecule": "O=C(CN(Cc1ccccc1)S(=O)(=O)c1ccccc1)NC1CC1", "hERG current change (%, negative = inhibition) at 10uM": -3.03}, {"molecule": "CC(Oc1ccccc1)C(=O)Nc1nnc(S(=O)(=O)N2CCCCCC2)s1", "note": "(stereo not shown)", "hERG current change (%, negative = inhibition) at 10uM": 4.16}, {"molecule": "Nn1c(SCC(=O)Nc2ccc3c(c2)OCO3)nnc1C1CCCCC1", "hERG current change (%, negative = inhibition) at 10uM": 1.5}, {"molecule": "Cc1cc(Br)ccc1NC(=O)CN(C)C(=O)Cn1c(=O)cnc2ccccc21", "hERG current change (%, negative = inhibition) at 10uM": -13.4}, {"molecule": "CCOc1ccc(C(=O)CSc2nnc(N)s2)cc1", "hERG current change (%, negative = inhibition) at 10uM": -4.8}, {"molecule": "NC(=O)c1ccc(NC(=O)Nc2ccc3c(c2)OCO3)cc1", "hERG current change (%, negative = inhibition) at 10uM": 16.4}, {"molecule": "COc1cc(C(=O)NCCN2CCCC2)cc(OC)c1OC.Cl", "hERG current change (%, negative = inhibition) at 10uM": 9.26}, {"molecule": "COc1ccc(CCNC(=O)C(=O)NCCOc2ccccc2Cl)cc1OC", "hERG current change (%, negative = inhibition) at 10uM": 23.2}, {"molecule": "COC(=O)C1=C(C)NC(C)=C(C(=O)OC)C1c1ccccn1", "hERG current change (%, negative = inhibition) at 10uM": 5.81}, {"molecule": "N#CC1=C(N)N(c2ccc(Br)cc2)C2=C(C(=O)CCC2)C1c1cccnc1", "note": "(stereo not shown)", "hERG current change (%, negative = inhibition) at 10uM": -27.3}, {"molecule": "COC(=O)Cn1c(=NC(=O)C2CC2)sc2c(C)cc(C)cc21", "hERG current change (%, negative = inhibition) at 10uM": 11.2}, {"molecule": "O.Oc1cc(O)c2c(c1)O[C@H](c1ccc(O)c(O)c1)[C@@H](O)C2", "hERG current change (%, negative = inhibition) at 10uM": 17.4}, {"molecule": "Cc1ccc(C(=O)NCC(=O)NCCSc2ccc(Br)cc2)cc1", "hERG current change (%, negative = inhibition) at 10uM": 4.26}, {"molecule": "O=C(NCc1ccc2c(c1)OCO2)c1cc([N+](=O)[O-])ccc1N1CCCCC1", "hERG current change (%, negative = inhibition) at 10uM": -27.5}, {"molecule": "O=C(CCC1CCCC1)Nc1ccc(C(=O)NCc2cccnc2)cc1", "hERG current change (%, negative = inhibition) at 10uM": -24.5}, {"molecule": "Cn1cnc(S(=O)(=O)NCc2ccccc2)c1", "hERG current change (%, negative = inhibition) at 10uM": 2.77}, {"molecule": "CCC(=O)Nc1ccc(-c2ccc(NC(=O)CC)c(OC)c2)cc1OC", "hERG current change (%, negative = inhibition) at 10uM": 10.2}, {"molecule": "CCCS(=O)(=O)N1CCCC(C(=O)NCC(OC)OC)C1", "note": "(stereo not shown)", "hERG current change (%, negative = inhibition) at 10uM": 11}, {"molecule": "O=C(NC(=S)N1CCCC1)c1ccccc1Cl", "hERG current change (%, negative = inhibition) at 10uM": 15.1}, {"molecule": "CCOc1ccccc1C(=O)NC(C)c1ccc2c(c1)OCO2", "note": "(stereo not shown)", "hERG current change (%, negative = inhibition) at 10uM": -30.9}, {"molecule": "CCOC(=O)C(C)NC(=O)c1cn(-c2ccc(OC)cc2)c(=O)c2ccccc12", "note": "(stereo not shown)", "hERG current change (%, negative = inhibition) at 10uM": 5.7}, {"molecule": "c1ccc(C(CN2CCOCC2)c2ccccc2)cc1", "hERG current change (%, negative = inhibition) at 10uM": -10.1}, {"molecule": "CCN1CCN(C(=O)c2ccc(CN(c3ccc(C)c(C)c3)S(C)(=O)=O)cc2)CC1", "hERG current change (%, negative = inhibition) at 10uM": -20.8}, {"molecule": "CCOC(=O)C(C(C)=O)=C1SC2CS(=O)(=O)CC2S1", "note": "(stereo not shown)", "hERG current change (%, negative = inhibition) at 10uM": -8.74}, {"molecule": "Cc1cc(C)nc(-n2nc(C)cc2NC(=O)CNC(C)c2ccccc2)n1", "note": "(stereo not shown)", "hERG current change (%, negative = inhibition) at 10uM": -62.2}, {"molecule": "Cc1cc(NCCCN(C)C)n2c(nc3ccccc32)c1C#N", "hERG current change (%, negative = inhibition) at 10uM": -1.49}, {"molecule": "O=C(Nc1ccccc1)c1ccc(CSc2ncccn2)cc1", "hERG current change (%, negative = inhibition) at 10uM": 19.3}, {"molecule": "Cc1ccc(-n2ncc3c(=O)n(CC(N)=O)cnc32)cc1", "hERG current change (%, negative = inhibition) at 10uM": 13.7}, {"molecule": "Nc1ncnc(Nc2ccc(S(N)(=O)=O)cc2)n1", "hERG current change (%, negative = inhibition) at 10uM": 6.68}, {"molecule": "COC(=O)c1ccc(SCC(=O)NC2CCCCC2)c([N+](=O)[O-])c1", "hERG current change (%, negative = inhibition) at 10uM": 10.7}, {"molecule": "Cc1ccc(OC(=O)CCC(=O)Nc2ccc(C)c(C)c2)cc1", "hERG current change (%, negative = inhibition) at 10uM": 13.7}, {"molecule": "C=CCNC(=O)C1CCN(S(C)(=O)=O)CC1", "hERG current change (%, negative = inhibition) at 10uM": -0.873}, {"molecule": "COc1ccc(C(=O)NC2CCN(CC(=O)NCc3ccccc3F)CC2)cc1", "hERG current change (%, negative = inhibition) at 10uM": -16.1}, {"molecule": "O=S(=O)(NCC(c1ccco1)N1CCN(c2ccccc2F)CC1)c1ccccc1", "note": "(stereo not shown)", "hERG current change (%, negative = inhibition) at 10uM": -4.72}, {"molecule": "Clc1ccc(Nc2ccc(-n3ccnc3)nn2)cc1Cl", "hERG current change (%, negative = inhibition) at 10uM": -9.9}, {"molecule": "CCCCC(=O)N/N=C/c1c(O)n(CCCC)c(=S)[nH]c1=O", "hERG current change (%, negative = inhibition) at 10uM": 23.6}, {"molecule": "COc1cc(C(=O)N/N=C2\\CCS(=O)(=O)c3ccc(F)cc32)cc(OC)c1OC", "hERG current change (%, negative = inhibition) at 10uM": 5.47}, {"molecule": "CN1C(=O)/C(=N\\OC(=O)c2ccccc2Cl)c2ccccc21", "hERG current change (%, negative = inhibition) at 10uM": -42.8}, {"molecule": "C=CCN1C(=NC(=O)CCC(=O)O)SC2CS(=O)(=O)CC21", "note": "(stereo not shown)", "hERG current change (%, negative = inhibition) at 10uM": 9.82}, {"molecule": "CCOC(=O)c1csc(NC(=O)CCSc2ccccc2)n1", "hERG current change (%, negative = inhibition) at 10uM": 18.5}, {"molecule": "O=C1OCc2cc(NC(=O)C34CC5CC(CC(C5)C3)C4)ccc21", "hERG current change (%, negative = inhibition) at 10uM": 13}, {"molecule": "O=[N+]([O-])c1ccc(-c2nnc3cccc(Cl)n23)cc1", "hERG current change (%, negative = inhibition) at 10uM": -7.58}, {"molecule": "CCN(CC)CCN(C(=O)c1ccc(S(=O)(=O)N2CCOCC2)cc1)c1nc2cc3c(cc2s1)OCCO3.Cl", "hERG current change (%, negative = inhibition) at 10uM": -69.2}, {"molecule": "CC(C)(C)NC(=O)C1CCCN(S(=O)(=O)c2ccc(-n3cnnn3)cc2)C1", "note": "(stereo not shown)", "hERG current change (%, negative = inhibition) at 10uM": -12.5}, {"molecule": "CCN(CC)S(=O)(=O)c1ccc(/C(O)=C(\\C#N)c2nc3ccccc3n2C)cc1", "hERG current change (%, negative = inhibition) at 10uM": -9.52}, {"molecule": "O=C(Cc1ccccc1F)OCC(=O)N1CCc2ccccc21", "hERG current change (%, negative = inhibition) at 10uM": 7.04}]}]}
